Reference: PubChem BioAssay AID602332 (National Center for Advancing Translational Sciences (NCATS), 2012)
The campaign covered roughly 420,000 compounds. About 75 (0.02%) were called active. This list was built around the results that the source calls inconclusive (neither active nor inactive); the mix of calls is not that of the screen. The call rests on the fitted dose curve; in most records, active means well fitted activation curve with a large enough effect; inconclusive means small, poorly fitted or top-dose-only effect; inactive means no such curve, though single readings can be large or run the other way. Where the call is inconclusive, the potency comes from a doubtful curve fit.

Experiment: qHTS for Inducers of the Endoplasmic Reticulum Stress Response (ERSR) in Human Glioma: qHTS; further: nearly all actives have a fitted effect of over 35% in size; on activation: % of control where 0% means no effect
Details: U87-MG GRP78 promoter luciferase reporter, 16 h; activation: hits give high values
How it was run: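 ERSR induction read as luciferase luminescence (Bright-Glo, 10 min at room temperature) in stably transfected human U87-MG glioma cells exposed to compounds for 16 h, using GRP78 as sensor.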
Potency means the concentration at half of the fitted maximal effect; tags describe the fitted curve by direction and shape.

Potency, inconclusive:
CCOC(=O)C1=C(C)NC(C)=C(C(=O)OCC)C1c1ccccc1C=CC(=O)OC(C)(C)C 25.1 µM [activator, partial curve, poor fit]
Cc1ccc(Cn2c(/C=C/c3ccco3)nc3ccccc32)cc1 50.1 µM [activator, partial curve, poor fit]
CCN(Cc1ccccc1)S(=O)(=O)c1c(C(=O)N2CCCC2)c(C)n(C)c1C 39.8 µM [activator, partial curve, poor fit]
C[C@]12CC[C@@H]3c4ccc(O)cc4CC[C@H]3[C@@H]1CCC2OC(=O)CCC1CCCC1 (some centres not stated) 28.2 µM [activator, single point]
O=C(Cc1ccc(Br)cc1)NCc1ccccc1 11.2 µM [activator, single point]
COC(=O)C(CCCCNC(=O)c1ccc([N+](=O)[O-])cc1)NC(=O)c1ccc([N+](=O)[O-])cc1 (configuration not stated) 50.1 µM [activator, single point]
Cc1ccc(-c2csc(/C(C#N)=C(\O)CCl)n2)cc1 50.1 µM [activator, partial curve, poor fit]
[N-]=[N+]=Nc1ccc(C(=O)CSC[C@H](NC(=O)CC[C@H](N)C(=O)O)C(=O)NCC(=O)O)cc1 58.5 µM [activator, partial curve, poor fit]
O=C(c1csnn1)N1CCC[C@@]2(CCN(C(c3ccccc3)c3ccccc3)C2)C1 44.7 µM [activator, partial curve, poor fit]
CN(CC(=O)NC(c1ccccc1)c1ccccc1)Cc1nc2ccccc2c(=O)[nH]1 20 µM [activator, single point]
N#C/C(=C/c1ccc(N2CCCCC2)o1)c1cccc(F)c1 10 µM [activator, partial curve, poor fit]
O=C(/C=C/c1ccccc1)c1ccc(O)cc1O 11.2 µM [activator, single point]
COc1ccc(NC(=O)NC2(C(=O)N3CCN4CCCC4C3)CCCCC2)cc1 (configuration not stated) 28.2 µM [activator, single point]
COc1ccc(-n2ccc(-c3sc(NCc4cc(OC)c5c(c4)OCO5)nc3C)n2)cc1 50.1 µM [activator, single point]
Cc1ccc(NC(=O)CC2Nc3ccccc3NC2=O)cc1Cl (configuration not stated) 7.94 µM [activator, partial curve, poor fit]
CNC(=O)c1cc(-c2cccs2)on1 22.4 µM [activator, full curve, poor fit]
COc1ccc(CNC(=O)c2cc(-c3ccc(OC)c(OC)c3)nc3n[nH]c(-c4ccc(C)cc4)c23)cc1 12.6 µM [activator, full curve, poor fit]
O=C(Nc1cccc(Cl)c1)c1ccc2ncsc2c1 2.51 µM [activator, full curve, poor fit]
COc1cccc(CNc2sc3c(c2C(=O)Nc2ccc(OC)cc2OC)CCC3)c1 50.1 µM [activator, single point]
Cc1ccc(-c2c3c(=O)n(C)c(=O)n(C)c3cn2-n2cnnc2)cc1 12.6 µM [activator, single point]
N#C/C(=C\c1ccc(OCc2ccc(C(=O)O)cc2)cc1)C(=O)NCc1ccccc1 44.7 µM [activator, partial curve, poor fit]
CCCCNC(=O)c1cc(-c2ccc(F)cc2)on1 14.1 µM [activator, partial curve, poor fit]
O=C(C=Cc1ccccc1)c1cccs1 10 µM [activator, full curve, poor fit]
CCCOc1ccc(CN2C(=O)C(=O)c3cccc(C)c32)cc1 50.1 µM [activator, single point]
CCC1CCCCN1C(=O)c1ccc(OC2CCN(C(=O)CCOC)CC2)cc1 (configuration not stated) 44.7 µM [activator, partial curve, poor fit]
COc1ccc(/C=C/C(=O)c2ccccc2)c(OC)c1 2 µM [activator, full curve, poor fit]
N#Cc1cccc(C(=O)Nc2cccc(S(=O)(=O)N3CCCC3)c2)c1 28.2 µM [activator, single point]
CC1(C)CC(=O)C2=C(C1)C(c1cn(-c3ccccc3)nc1-c1ccccc1)C(C#N)=C(N)O2 (configuration not stated) 50.1 µM [activator, partial curve, poor fit]
OC(c1ccccc1)c1nc(/C=C/c2ccccc2)cs1 (configuration not stated) 10 µM [activator, single point]
O=C(Cc1ccc(Cl)cc1)N/N=C/c1ccc(O)c(O)c1 14.1 µM [activator, full curve, poor fit]
CCOc1ccc(NC(=O)CCC(=O)N2CCSc3ccccc32)cc1 28.2 µM [activator, single point]
CC(=O)Nc1cccc(C(=O)/C=C/c2cccs2)c1 44.7 µM [activator, partial curve, poor fit]
C/C=C/NNC(=O)Cc1ccc(OC)cc1 28.2 µM [activator, partial curve, poor fit]
Cc1onc(-c2ccccc2Cl)c1C(=O)Oc1cc(N)n(S(=O)(=O)c2ccc(F)cc2)n1 28.2 µM [activator, single point]
C=CCNc1nc(-c2ccc(OC)cc2OC)cs1 10 µM [activator, partial curve, poor fit]
CCn1c(=O)c2c(nc(SCC(=O)N3CCCC(C)C3)n2C)n(C)c1=O (configuration not stated) 50.1 µM [activator, single point]
CC(C)(C)C1CCc2c(sc(NC(=O)CCC(=O)O)c2C(=O)Nc2ccccc2C(F)(F)F)C1 (configuration not stated) 50.1 µM [activator, single point]
Cc1nnc(SCC(=O)NC2CCCCC2)[nH]c1=O 28.2 µM [activator, single point]
CCOC(=O)COc1ccc(C(=O)NC2CCCCC2)cc1 10 µM [activator, single point]
Cc1ccc2nc(/C(C#N)=C\c3ccc([N+](=O)[O-])o3)[nH]c2c1 3.98 µM [activator, full curve, poor fit]
CCOC(=O)c1c(NC(=O)/C=C/C(=O)O)sc(C)c1-c1ccc(C)c(C)c1 28.2 µM [activator, single point]
CCOC(=O)C(C(C)=O)c1c(Br)c(O)c(O)c2c(C(=O)c3ccc(C)cc3)coc12 (configuration not stated) 10 µM [activator, single point]
Cn1cc(/C=C/C(=O)N2CCCC(C(=O)c3cccc4ccccc34)C2)cn1 (configuration not stated) 31.6 µM [activator, single point]
Cc1ccc(-c2cc(C(=O)N3CCN(C4CCS(=O)(=O)C4)CC3)c3ccccc3n2)cc1 (configuration not stated) 2 µM [activator, full curve, poor fit]
COc1cc(/C=C/C(=O)c2ccc(F)cc2)cc(OC)c1OC 28.2 µM [activator, single point]
O=C(O)c1ccc(Nc2nc3ccccc3nc2NS(=O)(=O)c2ccc(F)cc2)cc1 28.2 µM [activator, single point]
O=C(/C=C/c1ccc(O)c(O)c1)c1ccccc1O 2 µM [activator, full curve, poor fit]

activation, inactive:
CCN(CC)S(=O)(=O)c1ccc(N/N=C/c2ccc(O)cc2O)nc1 -2.13%
O=C(O)c1cc(NS(=O)(=O)c2ccc3ccccc3c2)ccc1O -4.85%
CC(C)c1cccc(C(C)C)c1OC(=O)[C@H]1OC(c2ccc(Br)cc2)=C[C@@H]1c1ccc(Br)cc1 -4.68%
CC(=O)OC[C@@H]1O[C@H](C/C=N\O[C@@H](C)CN2CCCCc3nc(C)c(C)cc32)C=C[C@@H]1OC(C)=O -2.45%
Cc1ccc(OCC(O)CNC2CCCC2)c(C)c1 (configuration not stated) -1.48%
Cc1ccc(S(=O)(=O)NCC(=O)OCc2ccccc2)cc1 -3.68%
CCC(O)CNC(=O)c1cnn(-c2ncc3c(n2)-c2ccc(OC)cc2CC3)c1C1CC1 (configuration not stated) -3.96%
COc1ccc(N2CCN(C(=S)Nc3cccc(C)c3)CC2)cc1 -4.12%
CCCC(=O)NC(=S)NNC(=O)c1ccc([N+](=O)[O-])cc1 -2.48%
CCCN1CCN(C(=S)Nc2sc(CC)cc2C(=O)OC)CC1 0.209%
S=C1SCN(Cc2ccccc2)CN1Cc1ccco1 -3%
COc1ccc(NC2CC(=O)N(c3cccc([N+](=O)[O-])c3)C2=O)cc1 (configuration not stated) -3.21%
CCOc1cc(CN2CCN(c3ccc(C(C)=O)cc3)CC2)ccc1OC -2.45%
O=[N+]([O-])c1nn(-c2ccc(Cl)cc2)n(O)c1=NCc1ccncc1 -0.984%
COCC(C)n1c(SCC(=O)N2CC(=O)Nc3ccccc32)nc2ccccc2c1=O (configuration not stated) -2.39%
